Assay in all cases: co-IP; HEK 293T cells transfected with tagged constructs, with or without co-expressed TSC1; lysis in 50 mM HEPES pH 7.5, 10% glycerol, 1 mM DTT, 100 mM NaCl, 0.1% Triton X100; anti-V5 or anti-myc affinity beads, or anti-Xpress / anti-TSC2 with Protein A/G beads, 4°C; immunoblot
In general terms: In western blotting, separated proteins are transferred to a membrane and probed.

Protein sequences, listed by entry. Tags and fused reporters are not part of them. Lines headed by an entry give the natural chain unless they say otherwise; changes in a name come on top. Chains listed by the source or under a name are the forms on record and can include a tag or linker. Residues count along the entry.
UniProt P49815: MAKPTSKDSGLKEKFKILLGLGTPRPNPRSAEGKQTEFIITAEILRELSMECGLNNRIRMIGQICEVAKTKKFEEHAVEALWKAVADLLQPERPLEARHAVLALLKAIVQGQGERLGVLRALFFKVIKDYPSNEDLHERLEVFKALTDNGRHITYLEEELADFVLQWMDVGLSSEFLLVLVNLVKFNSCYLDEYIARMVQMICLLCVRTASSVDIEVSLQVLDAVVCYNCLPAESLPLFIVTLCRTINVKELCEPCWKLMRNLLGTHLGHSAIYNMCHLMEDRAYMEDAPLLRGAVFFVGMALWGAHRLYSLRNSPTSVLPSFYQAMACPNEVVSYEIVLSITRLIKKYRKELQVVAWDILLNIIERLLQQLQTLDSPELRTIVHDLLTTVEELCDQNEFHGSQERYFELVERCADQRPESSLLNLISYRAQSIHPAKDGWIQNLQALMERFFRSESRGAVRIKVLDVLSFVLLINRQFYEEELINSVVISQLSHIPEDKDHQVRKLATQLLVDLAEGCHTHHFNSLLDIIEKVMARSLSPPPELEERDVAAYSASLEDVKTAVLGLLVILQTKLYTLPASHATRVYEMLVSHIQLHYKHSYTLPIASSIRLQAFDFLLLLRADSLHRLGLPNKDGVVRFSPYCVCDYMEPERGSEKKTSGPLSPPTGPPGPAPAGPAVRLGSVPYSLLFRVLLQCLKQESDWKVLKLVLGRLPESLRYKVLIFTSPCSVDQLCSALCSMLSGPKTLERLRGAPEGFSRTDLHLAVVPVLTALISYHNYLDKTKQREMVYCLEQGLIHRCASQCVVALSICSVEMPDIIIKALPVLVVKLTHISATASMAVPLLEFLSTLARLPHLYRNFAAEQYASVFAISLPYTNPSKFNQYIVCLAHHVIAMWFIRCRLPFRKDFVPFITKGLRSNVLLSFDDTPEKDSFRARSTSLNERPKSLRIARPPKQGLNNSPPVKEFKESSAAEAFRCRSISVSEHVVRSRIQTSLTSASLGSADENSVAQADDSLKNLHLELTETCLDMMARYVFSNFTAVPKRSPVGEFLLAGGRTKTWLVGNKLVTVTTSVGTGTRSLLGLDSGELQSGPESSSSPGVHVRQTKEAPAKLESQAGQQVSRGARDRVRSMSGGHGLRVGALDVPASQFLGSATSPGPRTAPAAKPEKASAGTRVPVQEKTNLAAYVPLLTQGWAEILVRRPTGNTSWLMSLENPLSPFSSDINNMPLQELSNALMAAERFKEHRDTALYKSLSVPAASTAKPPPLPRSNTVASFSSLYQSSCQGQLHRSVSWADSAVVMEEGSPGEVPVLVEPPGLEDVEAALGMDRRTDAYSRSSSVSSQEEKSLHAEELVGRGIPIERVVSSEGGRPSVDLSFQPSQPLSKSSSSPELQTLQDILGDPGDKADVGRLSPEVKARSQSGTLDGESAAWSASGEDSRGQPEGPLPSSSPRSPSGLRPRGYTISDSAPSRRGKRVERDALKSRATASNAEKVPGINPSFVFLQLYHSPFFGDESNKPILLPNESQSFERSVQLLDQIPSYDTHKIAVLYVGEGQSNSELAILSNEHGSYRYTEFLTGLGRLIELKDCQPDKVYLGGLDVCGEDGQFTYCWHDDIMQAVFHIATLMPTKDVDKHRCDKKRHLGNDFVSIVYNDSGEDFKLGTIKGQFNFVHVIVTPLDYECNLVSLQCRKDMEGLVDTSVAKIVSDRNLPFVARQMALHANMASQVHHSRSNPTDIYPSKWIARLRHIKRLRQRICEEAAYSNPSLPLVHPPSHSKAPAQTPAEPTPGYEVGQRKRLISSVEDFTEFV
TSC2 A1153V5 (TSC2 amino acids 1-1153): residues 1-1153 of P49815
TSC2 F904V5 (TSC2 amino acids 1-904): residues 1-904 of P49815
TSC2 A614V5 (TSC2 amino acids 1-614): residues 1-614 of P49815
TSC2 M1453V5 (TSC2 amino acids 1453-1784): residues 1476-1807 of P49815
GFP-tagged TSC2 (P49815-4, form named): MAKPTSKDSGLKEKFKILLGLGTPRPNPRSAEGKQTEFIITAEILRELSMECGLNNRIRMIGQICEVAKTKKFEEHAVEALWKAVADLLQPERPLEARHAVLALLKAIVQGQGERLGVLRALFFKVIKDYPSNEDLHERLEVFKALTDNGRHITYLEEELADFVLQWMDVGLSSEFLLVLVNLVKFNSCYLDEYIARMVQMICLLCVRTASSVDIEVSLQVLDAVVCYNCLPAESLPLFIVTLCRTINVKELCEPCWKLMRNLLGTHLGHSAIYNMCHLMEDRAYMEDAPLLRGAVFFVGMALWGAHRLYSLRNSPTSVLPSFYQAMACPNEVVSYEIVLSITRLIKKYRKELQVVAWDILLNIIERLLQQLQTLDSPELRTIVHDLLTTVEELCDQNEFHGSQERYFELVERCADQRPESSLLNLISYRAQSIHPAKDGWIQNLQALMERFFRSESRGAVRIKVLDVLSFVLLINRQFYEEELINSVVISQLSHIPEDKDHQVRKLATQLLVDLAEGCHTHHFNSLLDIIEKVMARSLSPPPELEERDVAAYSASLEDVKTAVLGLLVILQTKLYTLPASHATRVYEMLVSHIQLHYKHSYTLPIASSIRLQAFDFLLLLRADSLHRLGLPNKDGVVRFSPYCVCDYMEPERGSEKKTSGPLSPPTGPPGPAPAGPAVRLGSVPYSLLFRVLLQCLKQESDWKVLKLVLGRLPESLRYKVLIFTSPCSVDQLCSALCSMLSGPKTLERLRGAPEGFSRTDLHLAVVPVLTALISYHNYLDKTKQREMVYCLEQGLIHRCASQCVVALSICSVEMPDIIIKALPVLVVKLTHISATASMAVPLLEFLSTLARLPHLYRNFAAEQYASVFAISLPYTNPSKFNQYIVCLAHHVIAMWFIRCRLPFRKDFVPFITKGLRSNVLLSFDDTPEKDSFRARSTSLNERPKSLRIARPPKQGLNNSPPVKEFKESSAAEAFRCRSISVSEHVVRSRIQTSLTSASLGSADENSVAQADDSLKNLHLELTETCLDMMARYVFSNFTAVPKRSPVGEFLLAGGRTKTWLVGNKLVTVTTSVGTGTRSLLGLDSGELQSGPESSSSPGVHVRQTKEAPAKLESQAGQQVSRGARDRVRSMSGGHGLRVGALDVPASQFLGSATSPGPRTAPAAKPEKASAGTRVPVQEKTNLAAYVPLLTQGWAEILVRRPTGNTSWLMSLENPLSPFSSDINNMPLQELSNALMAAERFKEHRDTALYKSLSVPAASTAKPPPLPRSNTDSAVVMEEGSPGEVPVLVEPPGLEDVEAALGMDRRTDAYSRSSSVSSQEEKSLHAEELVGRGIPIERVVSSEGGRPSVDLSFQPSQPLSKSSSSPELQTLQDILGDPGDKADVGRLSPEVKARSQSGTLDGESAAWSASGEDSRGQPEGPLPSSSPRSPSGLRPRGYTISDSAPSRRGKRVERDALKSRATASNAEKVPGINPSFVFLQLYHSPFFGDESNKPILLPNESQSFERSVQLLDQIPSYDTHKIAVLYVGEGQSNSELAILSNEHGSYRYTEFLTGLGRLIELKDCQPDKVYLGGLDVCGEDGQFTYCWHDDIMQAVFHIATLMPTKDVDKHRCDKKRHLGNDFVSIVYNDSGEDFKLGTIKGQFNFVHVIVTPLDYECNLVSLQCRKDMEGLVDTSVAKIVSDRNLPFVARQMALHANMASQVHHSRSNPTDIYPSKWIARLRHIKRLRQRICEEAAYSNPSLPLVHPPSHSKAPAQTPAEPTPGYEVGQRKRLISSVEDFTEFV
TSC2 M1028V5 (TSC2 amino acids 1028-1784) (P49815-4, form named): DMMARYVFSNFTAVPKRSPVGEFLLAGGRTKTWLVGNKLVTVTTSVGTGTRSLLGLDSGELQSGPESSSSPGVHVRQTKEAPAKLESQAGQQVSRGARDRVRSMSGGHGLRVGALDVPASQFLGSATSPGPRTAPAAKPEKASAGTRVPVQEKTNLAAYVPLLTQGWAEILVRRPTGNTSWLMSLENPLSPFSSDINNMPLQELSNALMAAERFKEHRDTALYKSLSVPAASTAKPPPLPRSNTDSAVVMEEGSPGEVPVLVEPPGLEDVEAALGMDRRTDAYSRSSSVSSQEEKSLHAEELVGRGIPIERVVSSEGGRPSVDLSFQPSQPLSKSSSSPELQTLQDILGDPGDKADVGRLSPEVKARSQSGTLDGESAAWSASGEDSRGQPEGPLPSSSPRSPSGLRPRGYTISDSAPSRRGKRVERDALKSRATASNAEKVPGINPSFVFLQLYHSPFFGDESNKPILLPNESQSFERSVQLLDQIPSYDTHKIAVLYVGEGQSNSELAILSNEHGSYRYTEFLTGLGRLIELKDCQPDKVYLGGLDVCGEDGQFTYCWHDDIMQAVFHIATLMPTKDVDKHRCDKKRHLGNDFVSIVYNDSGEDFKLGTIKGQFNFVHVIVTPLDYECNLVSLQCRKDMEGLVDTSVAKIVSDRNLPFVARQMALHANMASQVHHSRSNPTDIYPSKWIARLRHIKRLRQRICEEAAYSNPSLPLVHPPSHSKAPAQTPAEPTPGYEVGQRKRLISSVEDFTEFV
GFPTSC2 containing the R611Q pathogenic substitution (P49815-4, form named): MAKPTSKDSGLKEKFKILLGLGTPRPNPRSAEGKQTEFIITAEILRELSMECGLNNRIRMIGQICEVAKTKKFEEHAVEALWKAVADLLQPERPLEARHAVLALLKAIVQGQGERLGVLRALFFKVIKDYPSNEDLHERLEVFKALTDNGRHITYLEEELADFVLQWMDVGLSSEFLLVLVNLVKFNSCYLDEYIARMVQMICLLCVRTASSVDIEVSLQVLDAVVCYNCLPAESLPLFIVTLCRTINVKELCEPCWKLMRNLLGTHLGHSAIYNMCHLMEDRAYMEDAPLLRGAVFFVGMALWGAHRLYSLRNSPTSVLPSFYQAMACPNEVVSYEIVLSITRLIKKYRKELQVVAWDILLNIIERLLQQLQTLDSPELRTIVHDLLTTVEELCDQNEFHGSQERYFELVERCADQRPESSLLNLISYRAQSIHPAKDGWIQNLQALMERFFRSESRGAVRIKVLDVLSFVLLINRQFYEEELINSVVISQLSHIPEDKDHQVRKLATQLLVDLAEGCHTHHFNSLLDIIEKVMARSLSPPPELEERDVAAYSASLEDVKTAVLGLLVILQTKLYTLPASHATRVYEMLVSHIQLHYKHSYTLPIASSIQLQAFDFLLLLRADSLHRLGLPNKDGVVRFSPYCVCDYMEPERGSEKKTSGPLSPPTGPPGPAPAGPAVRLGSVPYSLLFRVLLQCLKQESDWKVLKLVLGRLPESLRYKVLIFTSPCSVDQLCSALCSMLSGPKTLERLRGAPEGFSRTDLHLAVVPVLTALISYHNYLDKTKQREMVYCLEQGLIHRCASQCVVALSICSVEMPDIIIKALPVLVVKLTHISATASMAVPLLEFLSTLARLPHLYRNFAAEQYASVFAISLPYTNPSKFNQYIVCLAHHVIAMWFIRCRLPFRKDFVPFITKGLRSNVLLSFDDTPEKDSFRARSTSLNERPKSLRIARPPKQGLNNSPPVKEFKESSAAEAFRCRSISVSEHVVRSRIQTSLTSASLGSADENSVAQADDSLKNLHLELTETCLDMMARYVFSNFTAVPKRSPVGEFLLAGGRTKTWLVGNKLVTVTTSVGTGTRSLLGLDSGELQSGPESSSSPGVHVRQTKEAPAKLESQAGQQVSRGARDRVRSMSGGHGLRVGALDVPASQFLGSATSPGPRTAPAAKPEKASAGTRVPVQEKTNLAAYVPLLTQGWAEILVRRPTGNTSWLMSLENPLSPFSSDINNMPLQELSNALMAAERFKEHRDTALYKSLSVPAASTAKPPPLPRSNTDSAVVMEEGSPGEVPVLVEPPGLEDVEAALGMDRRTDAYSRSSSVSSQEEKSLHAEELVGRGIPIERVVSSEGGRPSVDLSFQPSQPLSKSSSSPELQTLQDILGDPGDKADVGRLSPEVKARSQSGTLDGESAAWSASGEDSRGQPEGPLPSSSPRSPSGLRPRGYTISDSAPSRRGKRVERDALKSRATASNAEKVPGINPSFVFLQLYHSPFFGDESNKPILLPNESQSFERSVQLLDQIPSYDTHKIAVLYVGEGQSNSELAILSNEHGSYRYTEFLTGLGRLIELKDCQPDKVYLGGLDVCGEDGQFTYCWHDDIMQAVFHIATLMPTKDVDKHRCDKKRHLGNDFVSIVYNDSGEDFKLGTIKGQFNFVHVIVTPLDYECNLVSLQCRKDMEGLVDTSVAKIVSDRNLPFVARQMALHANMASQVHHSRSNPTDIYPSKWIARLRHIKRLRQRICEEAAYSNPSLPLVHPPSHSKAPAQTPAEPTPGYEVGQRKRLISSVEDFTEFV

In assay [1] the target is TSC2, untagged, full-length (transfected) (UniProt P49815).
Assay [2] concerns the target TSC2 M1453V5 (TSC2 amino acids 1453-1784) (UniProt P49815).
Assay [3] deals with TSC2 M1028V5 (TSC2 amino acids 1028-1784) (UniProt P49815).
Assay [4] has as its target T1, TSC1 tagged with a C-terminal myc epitope (UniProt Q92574).
T1 sequence: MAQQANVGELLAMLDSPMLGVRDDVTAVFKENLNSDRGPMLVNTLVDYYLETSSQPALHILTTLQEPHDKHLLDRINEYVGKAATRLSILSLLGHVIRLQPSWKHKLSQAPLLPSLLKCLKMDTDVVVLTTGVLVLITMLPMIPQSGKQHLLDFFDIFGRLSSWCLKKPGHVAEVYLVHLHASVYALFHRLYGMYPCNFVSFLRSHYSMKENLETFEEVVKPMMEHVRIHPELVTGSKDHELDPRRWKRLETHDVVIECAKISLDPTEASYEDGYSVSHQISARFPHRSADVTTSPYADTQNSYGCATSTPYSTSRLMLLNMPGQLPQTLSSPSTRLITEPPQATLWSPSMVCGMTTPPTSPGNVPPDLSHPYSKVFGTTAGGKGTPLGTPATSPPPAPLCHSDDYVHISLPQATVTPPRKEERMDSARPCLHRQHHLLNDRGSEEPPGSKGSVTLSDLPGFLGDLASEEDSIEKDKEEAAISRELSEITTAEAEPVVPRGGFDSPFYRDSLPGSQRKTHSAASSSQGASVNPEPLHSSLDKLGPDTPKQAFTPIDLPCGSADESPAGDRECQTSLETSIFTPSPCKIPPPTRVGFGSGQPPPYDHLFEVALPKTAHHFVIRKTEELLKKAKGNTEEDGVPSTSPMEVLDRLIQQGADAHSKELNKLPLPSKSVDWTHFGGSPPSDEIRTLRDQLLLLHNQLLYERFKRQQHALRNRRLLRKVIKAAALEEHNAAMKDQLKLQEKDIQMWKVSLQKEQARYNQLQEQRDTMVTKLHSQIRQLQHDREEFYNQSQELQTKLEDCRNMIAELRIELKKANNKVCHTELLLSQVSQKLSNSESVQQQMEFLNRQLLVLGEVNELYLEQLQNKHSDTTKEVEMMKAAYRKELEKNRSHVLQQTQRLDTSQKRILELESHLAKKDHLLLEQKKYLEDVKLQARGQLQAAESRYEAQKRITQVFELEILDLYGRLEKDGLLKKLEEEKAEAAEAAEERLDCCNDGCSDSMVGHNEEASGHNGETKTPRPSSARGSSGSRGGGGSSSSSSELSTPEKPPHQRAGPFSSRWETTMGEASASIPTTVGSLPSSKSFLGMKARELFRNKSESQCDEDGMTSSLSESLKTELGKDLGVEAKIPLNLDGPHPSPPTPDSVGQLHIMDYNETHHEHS

Assay [5] concerns the target TSC2 F904V5 (TSC2 amino acids 1-904) (UniProt P49815).
Assay [6] concerns the target T2, TSC1 tagged with a C-terminal V5 epitope (UniProt Q92574).
T2 sequence: T1 sequence

For assay [7], the target named is TSC2 A614V5 (TSC2 amino acids 1-614) (UniProt P49815).
For assay [8], the target named is TSC2 A1153V5 (TSC2 amino acids 1-1153) (UniProt P49815).
In assay [9] the target is V5-tagged full-length TSC2 (UniProt P49815).
Assay [10] concerns the target N-terminal Xpress epitope tagged TSC2 (UniProt P49815).

These are yes or no findings as the source states them, for the method shown. Binding seen in cells or lysates may run through a third protein. Some binding calls cover weakened binding; strength is not graded here. For part of these data: Sequences can lack the tags named with a protein.

Consider “TSC2 A1153V5 (TSC2 amino acids 1-1153) (from UniProt P49815-4 1-1153) (domain or fragment)”, for which the binding entry in assay [1], in assay [2] and in [3] was “binds” each time.

Take “TSC2, untagged, full-length (transfected) (from UniProt P49815-4 1-1784)”: the binding entry in assay [4], in assay [2], in [5], in assay [6], in assay [7] and in [8] was “binds” in each case. For the same substance, the binding entry in assay [3] was “binds”.

With “GFPTSC2 containing the R611Q pathogenic substitution (from UniProt P49815-4 1-1784)”, the binding entry in assay [9] was “binds”.

With “GFPTSC2 containing the R905Q pathogenic substitution (from UniProt P49815-4 1-1784)”, the binding entry in assay [9] was “binds”.

On to “V5-tagged full-length TSC2 (from UniProt P49815-4 1-1784)”, for which the binding entry in assay [10] is given as “binds”.

Take “GFPTSC2 containing the N1620S pathogenic substitution (from UniProt P49815-4 1-1784)”: the binding result in assay [9] was “binds”.

“GFP-tagged TSC2 (from UniProt P49815-4 1-1784)”: in assay [9], the binding result is on record as “binds”.

For the origin of these results see paper PMC3517901.
